From publication PMC10726135
Some of the results follow. At the low end of the ranking, values are background and their order means little. The protein was read in a cell extract, so binding may be indirect.

Target: T1, HNF4alpha8 (COS-7 nuclear extract) (UniProt P41235-5)
T1 sequence: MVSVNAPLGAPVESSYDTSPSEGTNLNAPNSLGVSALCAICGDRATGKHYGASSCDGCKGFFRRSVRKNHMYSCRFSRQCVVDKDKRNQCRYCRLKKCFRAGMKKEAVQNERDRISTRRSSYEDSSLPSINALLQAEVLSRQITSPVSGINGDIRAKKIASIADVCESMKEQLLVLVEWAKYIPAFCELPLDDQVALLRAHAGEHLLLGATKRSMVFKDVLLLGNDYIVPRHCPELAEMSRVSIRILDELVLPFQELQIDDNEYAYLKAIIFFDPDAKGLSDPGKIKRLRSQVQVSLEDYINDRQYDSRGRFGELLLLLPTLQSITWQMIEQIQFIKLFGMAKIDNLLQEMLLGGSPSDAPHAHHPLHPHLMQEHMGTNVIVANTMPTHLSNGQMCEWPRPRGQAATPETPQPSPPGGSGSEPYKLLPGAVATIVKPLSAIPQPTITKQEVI
Assay: protein-binding microarray
Conditions: COS-7 nuclear extract on double-stranded Agilent 4x180k PBM; binding buffer, salt, pH and temperature not given; high values mean tight binding; double strand, one strand shown; sequences stand for … in …GCCTAGGGAGATTAGAGTATCGGTCGA

Row | Sequence | binding signal (log2 normalized intensity)
1 | TAAAGCGGACGGGCTGCGGAGGCGACTGCA | -1.31
2 | CAGGGACCTTTGTTCCTTTACACATGAGAG | 2.87
3 | AAATCTTAAGGAGGAGTGCTAGAGAAAGGA | -1.36
4 | CCAAACAATGCAAGAGAGGTCACAACAGAA | -1.31
5 | CCCCACCATTGTTATCTGATCAAATTCCAC | 3.36
6 | CAAAGTCCTCCAACTGCCACGGTAAATATT | 1.05
7 | CAGGGATCAAATCCTAACATGCTGCAGGCA | -1.08
8 | CCAAATTCCAGCTGAAGTTCCCAGCCCTTC | -0.535
9 | TCTCTCTCTCTTTCTTCCCCCACTCCAAGT | 4.77
10 | GGCGACCTTCGCTCGGCTCGCTCTCCCTGC | 0.281
11 | CAGGGGTCATCAGATAGATGGTCAGTGAAC | 1.88
12 | GTAAGGTCGACCTTTAAACGTTTGCTGGAT | 5.1
13 | TTAGAGAGAGAAATTGCTTAAGTGCTTGTC | -0.724
14 | CCAGTGGTCCCTGGAGATAATAGTGGCTGA | -1.37
15 | CTCCTAAGCAGGACAGCAGAGTGGAGGCCA | -1.07
16 | AGGTCACTTTACAGATAAAGAAACCATAGA | -1.43
17 | CTGCCCTTCTGACCTCCCAGGGATACTGTG | 2.99
18 | ACATTCTTCCATATAACCCTTGAACCTTCT | 5.82
19 | TAGTGCATAGTGGGTTTCGGTGTCATCTAG | 1.01
20 | AACAGGCAGAAGAATGGATGAGCTAATCAG | -1.3
21 | CTAAGCACCTCTGCTTATCTCAACTGATTT | -0.839
22 | AGCTTTTTGTTTGTGTAAGTGTGGGTTTAA | 2.13
23 | GCAGTTTGTCAAGTGCCCGGATAAACTTCC | -0.141
24 | TGGAGTGCACTGTGATCTTTAGAAAATACT | -0.0739
25 | GTCACTCCTTCCTCAAGACCCTTTACTGCC | 1.61

Row | Sequence | binding signal (log2 normalized intensity)
26 | TCTCTGGAGGTCACTGCTGGTGGGTGGGGG | 0.406
27 | ACCAAAACCAAGATAGTGACGGAGGTGACC | 1.88
28 | ATTTGGAAGTAAGAACCCCACTATTCAGGA | 2.1
29 | ATTCCTGGGAACTGCGGACATAGCTTGCCA | -1.3
30 | TCAACAAGACCCTGCCCTTTCCCCCGCCCT | 4.91
31 | CCTCTGCCTTTCAGGCAGGAGACGATGGTT | -1.16
32 | GCAAGGAAATAAAAGAGCCTGAGCCACTTC | -1.32
33 | TTAAAAAGCAAACAAAACACGGACTTTGAA | 4.97
34 | CTGACAGAACTAAGCTGTTGCGTAAGGGTC | 1.93
35 | GCAAGATCTCACAGATTAAGTCACGTGGAG | -0.935
36 | AATCCCAGGGTCAGAGGTCGCGAGGGAGAG | 3.67
37 | TCCAAAGAGCTCAACCTGTGAAAATTGGTA | -1.22
38 | CCATTACTTCTGTTTGCATTAGTTATATCT | 0.622
39 | AGGATCACCTGAGTCCAGAGGTCAAGGCTG | 4.56
40 | AGGCCAGGCATACCTTTCTTATCATAAGTA | -0.864
41 | AACGGCAGGGTTGTGCAGGACTGCGTAACT | -1.25
42 | GGGAAAACTTACGCACATTACTTTGATTGG | -1.19
43 | AAGGTCTTAAGTGTCATTAGTAACAAACAC | 0.846
44 | CCTCCCACCCCCACGGTGCGCTGCCCCTCA | 5.28
45 | GGCCGCCCAAGCGAATATGTCAGGCTCAGG | -1.09
46 | ATGAATGCCTTGGCCTCTGCAGACATGGAC | 1.31
47 | CCTTACCATTGCTTTCTTCCAAGGCTGCAA | -1.39
48 | GCAGAGCAGGTTCTCAGGCCAATCATATCT | -1.3
49 | GTCTTCCTGGTGACCTTTGTTTGGTCAAAT | 4.87
50 | CTGACCCCAGCATGTTTGGGTCACAATCAC | 2.53

Row | Sequence | binding signal (log2 normalized intensity)
51 | GTAGATAAGCAGATCTGGGCAATGTCAACA | -1.19
52 | CACTGCTTTGTTCCCTGGCTCACTGACTCA | -1.3
53 | TTTCACCTCTGCACCCCACCAAGGACTGGA | 2.69
54 | CAATTAGAGCAAAGGTTACTGCAGAGAAGA | 2.07
55 | CCAGAACGTGGCCTTTAATCAACTGCAGGA | -1.14
56 | TAACTCAAAATCTGCTCTGTCCTGAGATGT | 0.898
57 | CTGAAACATGCCTATGACCGAGGGTTAAGC | -0.405
58 | GAACTGAGCAGGCCTGGGCTTGCAAAGGTC | 3.51
59 | TGTACAAAGGTCACTTCTGTTCATTGATAA | 4.79
60 | CCTTTTTTGAAGGTTAAAGTCCATTTTTGA | 7.52
61 | GGGAGGGTGGGTTATCAGTAAGAGCATCAG | -0.864
62 | CAGATGGAATGTGTGCCCGTCACCTCTGAA | -0.151
63 | TCCTTCCTCAAGACCCTTTACTGCCATCTG | 0.38
64 | AAAGAGACAAAGCTTTGAAGATGCTTTTTG | -1.32
65 | ATTCCTTCCCAAGTGCTAGCTTGGTCTGAA | -0.612
66 | AAACTGCAGCTGCTGCACTGATAAGAAAGC | -1.32
67 | ACATGTACAGTATTGCGTAAGTTGTTCCTT | 1.31
68 | AGCTGCTTCGGCCAGCACAGGAGGCCTCTC | -1.38
69 | AGGAGCCAATTATGCTGGCAGTAGGGAGGT | -1.48
70 | GAGGAAAAGGAGGAGTTTGACCCCAGGTAG | 5.1
71 | ACTGATAGGTGCGTGGGGGAGGGGCCAGGA | -1.42
72 | TTCTTAGGGAGATGGATATATGTACAGCTG | -0.376
73 | GACGCAGAGAAGCACTGCAGTTTAAGTCTG | -1.5
74 | GGAAATGATAGCATCCCAGTAGAAAAAAAA | -1.37
75 | ACTTGAGGTATGATGCATCCTGAGGCAAAA | -1.17

Row | Sequence | binding signal (log2 normalized intensity)
76 | AGTCCCATAACTGACTGTGTCTGTTTACCC | 1.45
77 | TTTCTCTTTTGACCTTTGGACTTTCACATT | 11
78 | ACAAAGAAATGTAACCTTTGGCCAATTGCA | 5.13
79 | GCAATTGGTCAAAGGTCACCAGTGAGCCAA | 5.73
80 | GTTTTTTTCACCTGGGGCCTTGGGCCACCT | -0.891
81 | TGTTTGCCTCTCAGCTCATTCAAAGTCCAA | 4.2
82 | TCATGACAAAGAAATGTAACCTTTGGCCAA | 7.31
83 | CCTGACTCAAGAAAGGATCTCACCCAAACC | -1.24
84 | AGGTTTCCACTGATAAAGTTCTTTTGTGTG | 1.22
85 | GGCAGAGTTGTTTGCAGAGGGAAAGCGAGA | -1.22
86 | GGAACTGTCCACCAAGGAGGTGCTGACAGG | -1.29
87 | TGAGATTTTGCTCAACAAATATTAGCTGTT | -1.46
88 | TGTCCATGGTGACCATGTGATGTGAAGAGT | -0.253
89 | TTCCTGGCAGCCAGCTGGTTTGCCTCTCTT | -1.34
90 | CTGGCCTTCCTGGCCCTAGCTGGGTTTTTC | 0.0952
91 | GAGTCTGTTGTCTAACATTTTTGACCTTCA | 4.68
92 | GCCCAGTCAAACCCCGCGCTCCAGGCATGG | -1.02
93 | ATGTGTTAGGCAAGCAAACTGCAAATACAG | -1.31
94 | GCCCCATAACCACCATTAGACTCTGCCCTC | 4.98
95 | GCCGGCGCAGCCGCGCTCCGCCCCGTTCCC | 2.08
96 | CTCTTACAACGAGGTGCCAGAAACCTGACT | -1.22
97 | TATCATACTCAGCTAATCTAGAGACACTAT | -1.41
98 | CTGTGGATAGCTCAGGGATTAACGACTCAT | -1.24
99 | CAGTACTGAAACATGCCTATGACCGAGGGT | 0.281
100 | GTTAAAGTCCGTTACAGACAGGCAGCCCCT | 0.205

Row | Sequence | binding signal (log2 normalized intensity)
101 | AAGGCCACAGCTCAGATCACAAAAGATGGA | -1.34
102 | ATGACAAAGGTGAGAGAGCATCCAGATAAA | -1.19
103 | CCCCAAAGGCTCTCTGTTGACCACCTGCCC | 2.43
104 | CTCCGCTAAGTGGCTCGACAACGATTTGGG | -1.18
105 | GGAGTCAAGCAAACACACTTGCTCTAATCC | -1.28
106 | GTAAATTCTTGAGCAGTCACTGGGAGATAT | -1.15
107 | ATGACTCCAAAGTTCAAACTCTGAAAGCAC | 3.38
108 | GACACTGCTCTCTCCAGGGGAGGGTGACCA | -0.232
109 | TAACACCAGATAAACAGAAGAAAGGGGCTA | -1.43
110 | GAAGCCACAGAAGTCTTTCCCTGCCAGTTC | -1.26
111 | GTCTGACAGATAAGATTTGGAAAATATTGC | -1.06
112 | CAGAGCACAGCAGGGCAGGGTATGCCTGAC | -1.39
113 | GAGGGGATTGATGGAATTCCACTGACTGCT | -1.35
114 | ACCCCCAACTTCCCCAACCCTTGCACTGCT | 3.95
115 | AGATTTGAATATGTACATGGACTTTGAACC | 10.6
116 | CTCTCCCAGTGGAATGCAAATATAGAAATA | -0.275
117 | CGGGTTCTGCGCAGGGAGGAGCGCATCGGG | -1.28
118 | AAAGGTCTGAGAACCAAGAGAGCCATTGGT | -1.35
119 | AGGGGAAAAAGGACTCTGGGAAGATTAAGG | -1.33
120 | GTGAGCCACCACGCCCGGCCAAAGACCACA | -1.28
121 | TGAGAGAGCATCCAGATAAAGCTGAAGAAA | -1.01
122 | AGCAATTTAGCAGCACCATCCTACAGGGTA | -1.3
123 | TGATAGTCTGCTACCATCAGATAAGCTCAG | -1.3
124 | TAGAATCTGCAGCCCCTTTTGGAATCCCCA | 4.23
125 | AAAGTTTCACTTTCTCTTATAGCTCAACCC | 0.389

Row | Sequence | binding signal (log2 normalized intensity)
126 | GGCCTGCATGACTACATTCTTTGAAGACTA | -1.25
127 | GTGGGTGCCAAACAAAAAGGGCAAAGGTCA | 8.84
128 | AGGTGCTGCCTTGGAGGTGAGGGTTACAGG | 0.123
129 | CTGGTGTGAGGTCAGTTGATAAACAGATAA | 0.649
130 | TGGTGTAAGCACTTGTGGTATGTTTGGATT | 2.29
131 | AGCACGGCCAGGATTAACCACAGAAATGCC | -1.36
132 | GGAGGGGTAAGGGTGGGGGTGGGGAGGATA | -1.31
133 | AGCCTTATCAGTATCAATGAGATCTCCCCA | 2.25
134 | GCAAGTAGAGCTGCTTACATTTTGCTCTGT | 0.196
135 | TGTAACTGTAACTATATTGACCACCTCCTC | 1.35
136 | GAGTCTTAGGGAGGGGCCAGGACAAAGGTC | 6.64
137 | TGAGTTATTGGAAGAATGGAATTGCCATTG | 0.79
138 | GGGGACCTTTGGCCTTTACCTGTTACTTAT | 4.06
139 | TGTCACCCAGCCAGAATTCTCCCTGCAGTC | -1.44
140 | GCGCCAGGCTGGGGGCAGAGTTCACCCCAT | 4.31
141 | CTCAAGCTTCAGGAGTCCACTGTGTTCTTG | 2.05
142 | TGAAATTTGGCCTGCTGAGCCCAATCTAGC | -1.31
143 | AGATAGTGACGGAGGTGACCTTTGGTTGTC | 6.24
144 | GCAAGTCGAGCAAGGTTCAGCACATTTATG | 0.657
145 | GCGCGGGCAGGTTGCCCTTTCGGTGGGACT | 2.96
